To fix the notation:
B1: TEV protease; numbered along this chain (parent)
chain: MGESLFKGPRDYNPISSSICHLTNESDGHTTSLYGIGFGPFIITNKHLFRRNNGTLVVQSLHGVFKVKDTTTLQQHLVDGRDMIIIRMPKDFPPFPQKLKFREPQREERICLVTTNFQTKSMSSMVSDTSCTFPSGDGIFWKHWIQTKDGQCGSPLVSTRDGFIVGIHSASNFTNTNNYFTSVPKNFMELLTNQEAQQWVSGWRLNADSVLWGGHKVFMVKPEEPFQPVKEATQL

This is one part of the list. The full chains were built here from the parent and the listed change. Inactive controls read about 0.05.

The variants in this experiment derive from B1. The experiment is described as follows: raw area under fraction-flipped curve 0-4 h after induction (AUC4h, not background-subtracted), DNA-recorder readout of cleavage of the substrate (dimensionless); higher = more cleavage of the substrate by the protease variant. The note with it: temperature: 34 °C; time window: 0-4 h after rhamnose induction.
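Note: Bxb1 expression induced with 0.2% (w/v) L-rhamnose at OD600 near 0.5, cultures sampled hourly, flipped fraction per protease–substrate barcode pair counted by paired-end Illumina sequencing.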

Take MGESLFKGPRDYNPISSSICHLTNESDGHTTSLYGIGFGPFIITNKHLFRRNNGTLVVQSLHGVFKVKDTTTLQQHLVDGRDMIIIRMPKDFPPFPQKLKFREPQREERICLVTTNFQTKSMSSMVSDTSCTFPSGDGIFWKHWIQTKDGQCGSPLVSTRDGFIVGIHSASNFTNTNNYFTSVPKNFMELLTNQEAQQWVSGWRLNADSVLWGGHKVFEVKPEEPFQPVKEATQL [M219E]: the “area with substrate ENCYFQS” value stood at 0.0699, the “area with substrate ENDYFQS” value worked out at 0.0629, the “area with substrate ENEYFQS” value amounted to 0.0708 and the “area with substrate ENGYFQS” value is 0.0898. The “area with substrate ENHYFQS” value worked out at 0.0621, the “area with substrate ENMYFQS” value turned out to be 0.0711, the “area with substrate ENNYFQS” value is 0.0651 and the “area with substrate ENPYFQS” value stood at 0.0426. Moreover, the “area with substrate ENQYFQS” value was determined as 0.0493, the “area with substrate ENRYFQS” value stood at 0.0534, the “area with substrate ENSYFQS” value came to 0.0615 and the “area with substrate ENTYFQS” value stood at 0.0605.

As for MGESLFKGPRDYNPISSSICHLTNESDGHTTSLYGIGFGPFIITNKHLFRRNNGTLVVQSLHGVFKVKDTTTLQQHLVDGRDMIIIRMPKDFPPFPQKLKFREPQREERICLVTTNFQTKSMSSMVSDTSCTFPSGLGIFWKHWIQTKDGQCGSPLVSTRDGFIVGIHSASNFTNTNNYFTSVPKNFMELLTNQEAQQWVSGWRLNADSVLWGGHKVFMVKPEEPFQPVKEATQL [D137L], the “area with substrate ENDYFQS” value is 0.0625, the “area with substrate ENEYFQS” value was 0.0778, the “area with substrate ENFYFQS” value is 0.0729 and the “area with substrate ENGYFQS” value was found to be 0.0618. For the same variant, the “area with substrate ENHYFQS” value is 0.0846, the “area with substrate ENIYFQS” value amounted to 0.0908, the “area with substrate ENKYFQS” value turned out to be 0.0677 and the “area with substrate ENNYFQS” value was determined as 0.0623. Moreover, the “area with substrate ENPYFQS” value was 0.0526, the “area with substrate ENQYFQS” value was 0.0483, the “area with substrate ENSYFQS” value turned out to be 0.0548 and the “area with substrate ENTYFQS” value came to 0.068. The “area with substrate ENVYFQS” value amounted to 0.0848 and the “area with substrate ENYYFQS” value worked out at 0.0624.

Turning to MGESLFKGPRDYNPISSSICHLTNESDGHTTSLYGIGFGPFIITNKHLFRRNNGTLVVQSLHGVFKVKDTTTLQQHLVDGRDMIIIRMPKDFPPFPQKLKFREPQREERICLVTTNFQTKSMSSMVSDTSCTFPSGDGIFWKHWIQTKDGQCGSPLVSTRDGFIVGIHSASNFTNTNNYFTSVPKNFMELLTNQEAQQWVSGWRLNADSVLWGGHKVFMVKSEEPFQPVKEATQL [P222S], the “area with substrate ENCYFQS” value was found to be 0.0705, the “area with substrate ENDYFQS” value was determined as 0.0541, the “area with substrate ENEYFQS” value is 0.0606 and the “area with substrate ENFYFQS” value was determined as 0.0506. In addition, the “area with substrate ENGYFQS” value was 0.0564, the “area with substrate ENHYFQS” value amounted to 0.0683, the “area with substrate ENMYFQS” value was determined as 0.0589 and the “area with substrate ENNYFQS” value stood at 0.0606. The “area with substrate ENPYFQS” value is 0.0714, the “area with substrate ENQYFQS” value was found to be 0.0572, the “area with substrate ENSYFQS” value turned out to be 0.0616 and the “area with substrate ENTYFQS” value is 0.0794.

Take MGESLFKGPRDYNPISSSICHLTNESDGHTTSLYGIGFGPFIITNKHLFRRNNGTLVVQSLHGVFKVKDTTTLQQHLVDGRDMIIIRMPKDFPPFPQKLKFREPQREERICLVTTNFQTKSMSSMVSDTSCTFPSGDGIFWKHWIQTKDGQCGSPLVSTRDGFIVGIHSASNFTNTNNYFTSVPKNFMELLTNQEAQQWVSGWRLNADSVLWGGHKVFMVKPEEPFQPVEEATQL [K230E]: the “area with substrate ENCYFQS” value is 0.0608, the “area with substrate ENDYFQS” value was 0.0645, the “area with substrate ENEYFQS” value is 0.0683 and the “area with substrate ENFYFQS” value was 0.0601. Besides, the “area with substrate ENGYFQS” value is 0.0591, the “area with substrate ENHYFQS” value amounted to 0.0456, the “area with substrate ENIYFQS” value is 0.116 and the “area with substrate ENNYFQS” value is 0.0436. The “area with substrate ENQYFQS” value amounted to 0.0581, the “area with substrate ENRYFQS” value came out at 0.0608, the “area with substrate ENSYFQS” value turned out to be 0.0675 and the “area with substrate ENTYFQS” value worked out at 0.0747. Moreover, the “area with substrate ENVYFQS” value amounted to 0.074, the “area with substrate ENWYFQS” value came out at 0.0835 and the “area with substrate ENYYFQS” value amounted to 0.0686.

Consider MGESLFKGPRDYNPISSSICHLTNESDGHTTSLYGIGFGPFIITNKHLFRRNNGTLVVQSLHGVFKVKDTTTLQQHLVDGRDMIIIRMPKDFPPFPQKLKFREPQREERICLVTTNFQTKSMSSMVSDTSCTFPSGDGIFWKHWIQTKDGQCGSPLVSTRDGFIVGIHSASNFTNTNNYFTSVPKNFMELLTNQEAQQWVSGWRLNADSVLWGGHKVFMVKPEEPFQPVMEATQL [K230M], for which the “area with substrate ENCYFQS” value worked out at 0.0856, the “area with substrate ENDYFQS” value turned out to be 0.0797, the “area with substrate ENEYFQS” value is 0.0572 and the “area with substrate ENFYFQS” value amounted to 0.0483. Also, the “area with substrate ENGYFQS” value came out at 0.0624, the “area with substrate ENHYFQS” value was determined as 0.0538, the “area with substrate ENIYFQS” value was 0.0891 and the “area with substrate ENKYFQS” value was determined as 0.0573. Moreover, the “area with substrate ENNYFQS” value worked out at 0.0507, the “area with substrate ENPYFQS” value was 0.0583, the “area with substrate ENQYFQS” value came out at 0.0587 and the “area with substrate ENRYFQS” value is 0.0583. Besides, the “area with substrate ENSYFQS” value is 0.0466, the “area with substrate ENTYFQS” value was found to be 0.0838, the “area with substrate ENVYFQS” value is 0.0686 and the “area with substrate ENYYFQS” value was determined as 0.056.

As to MGESLFKGPRDYNPISSSICHLTNESDGHTTSLYGIGFGPFIITNKHLFRRNNGTLVVQSLHGVFKVKDTTTLQQHLVDGRDMIIIRMPKDFPPFPQKLKFREPQREERICLVTTNFQTKSMSSMVSDTSCTFPSGDGIFWKHWIQTKDGQCGSPLVSTRDGFIVGIHSASNFTNTNNYFTSVPKNFMELLTNQEAQQWVSGWRLNADSVLWGGHKVFMVQPEEPFQPVKEATQL [K221Q], the “area with substrate ENCYFQS” value amounted to 0.0524, the “area with substrate ENDYFQS” value came to 0.0655, the “area with substrate ENHYFQS” value stood at 0.0595 and the “area with substrate ENMYFQS” value stood at 0.0574. Besides, the “area with substrate ENQYFQS” value is 0.0621, the “area with substrate ENRYFQS” value came out at 0.058, the “area with substrate ENSYFQS” value turned out to be 0.0578 and the “area with substrate ENTYFQS” value was 0.0575.

MGESLFKGPRDYNPISSSICHLTNESDGHTTSLYGIGFGPFIITNKHLFRRNNGTLVVQSLHGVFKVKDTTTLQQHLFDGRDMIIIRMPKDFPPFPQKLKFREPQREERICLVTTNFQTKSMSSMVSDTSCTFPSGDGIFWKHWIQTKDGQCGSPLVSTRDGFIVGIHSASNFTNTNNYFTSVPKNFMELLTNQEAQQWVSGWRLNADSVLWGGHKVFMVKPEEPFQPVKEATQL [V78F]: the “area with substrate ENDYFQS” value was determined as 0.0591, the “area with substrate ENEYFQS” value was determined as 0.0646, the “area with substrate ENFYFQS” value stood at 0.0645 and the “area with substrate ENGYFQS” value came to 0.0643. For the same variant, the “area with substrate ENKYFQS” value stood at 0.0593, the “area with substrate ENNYFQS” value worked out at 0.0512, the “area with substrate ENRYFQS” value stood at 0.0542 and the “area with substrate ENSYFQS” value is 0.061. Besides, the “area with substrate ENTYFQS” value came out at 0.0502 and the “area with substrate ENYYFQS” value turned out to be 0.0617.

On to MGESLFKGPRDYNPISSSICHLTNESDGHTTSLYGIGFGPFIITNKHLFRRNNGTLVVQSLHGVFKVKDTTTLQQHLVDGRDMIIIRMPKDHPPFPQKLKFREPQREERICLVTTNFQTKSMSSMVSDTSCTFPSGDGIFWKHWIQTKDGQCGSPLVSTRDGFIVGIHSASNFTNTNNYFTSVPKNFMELLTNQEAQQWVSGWRLNADSVLWGGHKVFMVKPEEPFQPVKEATQL [F92H], for which the “area with substrate ENDYFQS” value stood at 0.0608, the “area with substrate ENGYFQS” value was determined as 0.0625, the “area with substrate ENIYFQS” value amounted to 0.11 and the “area with substrate ENRYFQS” value came to 0.0492. The “area with substrate ENSYFQS” value stood at 0.0429, the “area with substrate ENTYFQS” value stood at 0.0718 and the “area with substrate ENYYFQS” value was 0.0562.

With MGESLFKGPRDYNPISSSICHLTNESDGHTTSLYGIGFGPFIITNKHLFRRNNGTLVVQSLHGVFKVKDTTTLQQHLVDGRDMIIIRMPKDFPPFPQKLKFREPQREERICLVTTNFQTKSMSSMFSDTSCTFPSGDGIFWKHWIQTKDGQCGSPLVSTRDGFIVGIHSASNFTNTNNYFTSVPKNFMELLTNQEAQQWVSGWRLNADSVLWGGHKVFMVKPEEPFQPVKEATQL [V126F], the “area with substrate ENDYFQS” value turned out to be 0.0637, the “area with substrate ENEYFQS” value came out at 0.0755, the “area with substrate ENFYFQS” value is 0.0604 and the “area with substrate ENHYFQS” value stood at 0.0606. In addition, the “area with substrate ENIYFQS” value is 0.104, the “area with substrate ENMYFQS” value amounted to 0.0742, the “area with substrate ENNYFQS” value turned out to be 0.0549 and the “area with substrate ENQYFQS” value turned out to be 0.0616. The “area with substrate ENRYFQS” value came out at 0.0559, the “area with substrate ENSYFQS” value came to 0.0535, the “area with substrate ENTYFQS” value was 0.0571 and the “area with substrate ENVYFQS” value is 0.101. Also, the “area with substrate ENWYFQS” value was 0.0347.

These data come from the supplement of paper PMC12217912.
